# According to the supplement of paper PMC10441789:
# The list shows a part of the results. Antibody binding of pooled human sera (four to six donors per pool; dilution not stated) to peptides of the Trypanosoma cruzi antigen TSSA on microarrays. Quantile-normalised fluorescence in arbitrary units, mean of duplicate arrays; higher = more binding. No active / inactive call. The uninfected pools are read here as the healthy donors of the same country. The strongest signals lie near the top of the scale (about 60,000).
# Legend:
# Assay in all cases: antibody binding signal (normalised fluorescence) (arbitrary fluorescence units); higher = stronger serum antibody binding to peptide
# [1] = test system: pooled sera of chronic Chagas disease patients, Argentina
# Protocol: (§1)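 Microarray of 15-residue peptides over residues 30-55 of Trypanosoma cruzi TSSAII, each with 1 to 10 substitutions at naturally variable positions, probed with one serum pool per country.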
# [2] = test system: pooled sera of chronic Chagas disease patients, Bolivia
# Protocol: as §1
# [3] = test system: pooled sera of chronic Chagas disease patients, Brazil
# Protocol: as §1
# [4] = test system: pooled sera of chronic Chagas disease patients, Colombia
# Protocol: as §1
# [5] = test system: pooled sera of chronic Chagas disease patients, Mexico
# Protocol: as §1
# [6] = test system: pooled sera of chronic Chagas disease patients, USA
# Protocol: as §1
# [7] = test system: pooled sera of uninfected people, Argentina
# Protocol: as §1
# [8] = test system: pooled sera of uninfected people, Bolivia
# Protocol: as §1
# [9] = test system: pooled sera of uninfected people, Brazil
# Protocol: as §1
# [10] = test system: pooled sera of uninfected people, Colombia
# Protocol: as §1
# [11] = test system: pooled sera of uninfected people, Mexico
# Protocol: as §1
# [12] = test system: pooled sera of uninfected people, USA
# Protocol: as §1
Sequence,antibody binding signal [1],antibody binding signal [2],antibody binding signal [3],antibody binding signal [4],antibody binding signal [5],antibody binding signal [6],antibody binding signal [7],antibody binding signal [8],antibody binding signal [9],antibody binding signal [10],antibody binding signal [11],antibody binding signal [12]
PPSGTEKKPATGGTP,34300,1920,31500,945,5550,5920,1320,876,864,305,236,741
TPPSGTDNKPATGGA,49000,40800,48700,7690,30000,23000,1850,1290,921,449,995,524
SGTDKKTAAGGAPSQ,266,419,686,13000,946,962,234,151,174,246,242,161
STPPSGKEKKPAAGG,21500,1090,3170,498,41200,641,485,450,151,,112,420
TDKKAAAGGAPSPSG,1340,290,271,5760,875,776,175,145,178,147,310,136
SGTDNKAATGEAPSP,24400,39600,43700,247,239,28000,109,548,857,144,141,189
TPPSGTENKTATGEA,42100,38100,44400,169,1510,18200,1730,221,326,,217,143
KDKKTATGEAPSPPG,4410,8860,5060,280,246,13300,193,104,115,,86.6,111
TDKKPATGGAPSPPG,1500,3140,1780,3270,1160,2120,478,1170,200,,195,228
KEKKPAAGETPSPSG,184,208,226,147,160,876,101,92.7,84.8,,85,665
ENKAATGGAPSQPGA,677,4300,23200,872,550,3920,350,148,196,,310,212
TPPSGTEKKAAAGET,28900,16000,25300,312,5480,3030,847,368,401,,259,170
GKENKPATGGTPSPP,1990,682,5970,3050,4150,10600,947,531,204,,224,154
GKDNKPAAGEAPSQS,1920,9300,29000,1590,1790,17200,228,1070,128,,268,95.2
PSGTDNKPATGGTPS,38000,22800,46300,4920,925,7370,320,1120,1230,,617,284
PPSGTENKAATGGTP,48800,38900,45700,562,3240,13400,1890,622,366,,309,739
EKKPAAGEAPSQPGA,7440,19800,40200,475,315,13800,148,687,263,,351,800
TEKKTATGGTPSPPG,1020,551,922,4140,893,1990,311,218,470,,246,214
SSTPPSGKENKTAAG,37300,12800,10900,502,7750,2720,1970,1100,175,,311,396
PPSGTDNKTATGGAP,23100,32200,45200,635,1560,4170,1280,1070,1700,,327,805
